Results as given in PubChem BioAssay AID1345083 (National Center for Advancing Translational Sciences (NCATS), 2018).
Where “and” joins values, the source holds several entries; their conditions need not be identical. Equal values may be shown once. In all, about 94,000 compounds went through this assay and about 6,200 (6.6%) were called active. Inconclusive means that the source gave no clear call. Such entries were picked first, then a sample of the others. Calls follow the shape of the dose curve; as a rule, active = well fitted inhibition curve with a large enough effect; inconclusive = small, poorly fitted or top-dose-only effect; inactive = flat fitted curve, though single readings scatter. Potencies of inconclusive entries are doubtful fits and often do not repeat.
Potency is read from the fitted curve at half-maximal effect; tags tell the direction and shape of the fitted curve.

Assay: Cytotoxic Profiling in HEK 293 Cell Line of Diverse Libraries Using Quantitative High-Throughput Screening; also: nearly all actives have a fitted effect of over 60% in size
Conditions: HEK 293 viability, ATP luminescence (CellTiter-Glo), 48-72 h; series mostly up to 115 µM
Method in brief: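 Cells seeded first (HEK 293, 250 cells/well), then compound added by pintool. Incubation ran 48 or 72 hr at 37 degree Celsius. CellTiter-Glo was added and luminescence imaged after 10 min at room temperature.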
For `Cc1ncoc1C(=O)N1CCC(c2noc(-c3ccncc3)n2)C1` (stereo unspecified), the Potency was “inactive”. For `O=C(NCC(F)F)C1CCCN(Cc2cccc(-c3ccsc3)c2)C1` (stereo unspecified), the Potency was inconclusive: 70.8 µM [inhibitor, partial curve, poor fit]. With `CCc1cccc2c(C(CC(=O)N3CCCC3)c3cccc(Cl)c3)c[nH]c12` (stereo unspecified) the Potency was inconclusive: 50.1 µM [inhibitor, partial curve, poor fit]. With `CC(C)CCN1CCOc2cc(C(=O)Nc3ccccc3)ccc2C1` the Potency was inconclusive: 35.5 µM [inhibitor, partial curve, poor fit]. For `C#CCNC(=O)c1cc(-c2ccccc2)nc2c1cnn2C`, the Potency was inconclusive: 89.1 µM [inhibitor, partial curve, poor fit]. For `O=C(NCC1CNCCOC1)c1ccc2nc(-c3ccc(F)cc3)cn2c1` (stereo unspecified), the Potency was inconclusive: 100 µM [inhibitor, single point]. For `O=C(NCC1CC1)C1CCCN(c2nccc(Nc3ccccc3F)n2)C1` (stereo unspecified), the Potency was inconclusive: 56.2 µM [inhibitor, partial curve, poor fit]. In the case of `O=C(NCC(F)F)c1nc2cccnc2n(Cc2ccccc2)c1=O`, the Potency is reported as inconclusive: 126 µM [inhibitor, single point]. With `Cc1cc(C)cc(-c2ccc(CN3CCCC3C(=O)NCCCc3ccccc3)cc2)c1` (stereo unspecified) the Potency was inconclusive: 50.1 µM [inhibitor, partial curve, poor fit]. In the case of `COc1ccc(S(=O)(=O)N[C@H]2C[C@H]3C(=O)NC[C@@H](CCC(=O)NCc4ccccc4)N3C2)cc1`, the Potency is reported as “inactive”. In the case of `O=C1Cc2c(-c3ccsc3)n[nH]c2CN1Cc1ccccc1`, the Potency is reported as “inactive”. With `CCN1c2cc(C(=O)Nc3ccc(OC)c(F)c3)ccc2C(=O)N2CCCCC21` (stereo unspecified) the Potency was inconclusive: 14.1 µM [inhibitor, full curve, poor fit]. In the case of `COc1ccccc1C(=O)N[C@@H]1CN(Cc2ccccn2)C[C@H]1CN(C)C`, the Potency is reported as inconclusive: 79.4 µM [inhibitor, partial curve]. For `O=c1n(-c2ccc(Cl)cc2)nc2n1CCN(CC1CC1)C2`, the Potency was “inactive”. With `Cc1cccc2c1O[C@H]1[C@H](C(N)=O)CN(C(=O)OCC(C)C)[C@@H]21` the Potency was inconclusive: 79.4 µM [inhibitor, partial curve, poor fit]. For `CC1CCC2(CC1)NC(=O)N(CC(=O)Nc1ccc(Br)cc1)C2=O` (stereo unspecified), the Potency was inconclusive: 12.6 µM [inhibitor, full curve]. With `Cc1nn(-c2ccccc2)c2c1C(C(C)C)N(C1CN(C(=O)Cc3ccccc3)C1)C2=O` (stereo unspecified) the Potency was active: 50.1 µM. For `COc1ccccc1OCCNC(=O)CC1=C2CCCCC2N(Cc2ccccc2)C1=O` (stereo unspecified), the Potency was inconclusive: 89.1 µM [inhibitor, single point]. For `O=C(c1cnc2n1CCN(CCc1ccccc1)CC2)N1CCC(c2ccccc2)CC1`, the Potency was active: 79.4 µM. With `O=C(Nc1cnc(-c2cccc(Cl)c2)nc1)c1nccc2ccccc12` the Potency was inconclusive: 79.4 µM [inhibitor, partial curve, poor fit]. In the case of `COCC(=O)NC1CCCN(Cc2ccc(-c3cccc(OC)c3)cc2)C1` (stereo unspecified), the Potency is reported as inconclusive: 39.8 µM [inhibitor, full curve, poor fit]. With `CN(Cc1ccnc2ccccc12)C(=O)c1cn(Cc2ccc(Cl)cc2)nn1` the Potency was active: 35.5 µM. In the case of `CC(C)C(=O)N1CCC(Cc2ccc(C(N)=O)cc2)CC1`, the Potency is reported as “inactive”. For `O=C(Nc1ccc(Cl)cc1)N1CCN(Cc2ccccc2-c2cccnc2)CC1`, the Potency was inconclusive: 39.8 µM [inhibitor, partial curve, poor fit]. For `CCCCNC(=O)CCN(CCCOC)C(=O)c1cc(C)oc1C`, the Potency was inconclusive: 22.4 µM [inhibitor, single point]. In the case of `Cc1ccc(CN2CCCCCCNC(=O)[C@@H]3C[C@@H](C(=O)N4CCc5ccccc5C4)C[C@@H]32)o1`, the Potency is reported as inconclusive: 50.1 µM [inhibitor, partial curve, poor fit]. With `CN1CCC(OC2CCN(C(=O)c3ccc(C(F)(F)F)cc3)CC2)CC1` the Potency was “inactive”. With `C#CCNC(=O)C[C@@H]1c2nc(NC(=O)C3CCCCC3)sc2C[C@@H]2[C@](C)(CO)[C@H](O)CC[C@]21C` the Potency was “inactive”. In the case of `CN1CCC2(CC1)Cc1ccccc1CN(C(=O)c1cccc(Cl)c1)C2`, the Potency is reported as inconclusive: 89.1 µM [inhibitor, partial curve, poor fit]. With `O=C(COc1ccccc1)c1ccc2c(c1)N(CCCC(=O)N1CCCC1)C(=O)CO2` the Potency was inconclusive: 89.1 µM [inhibitor, single point]. In the case of `COCCN1C(=O)CC[C@]2(C(=O)NCc3ccccc3Cl)CCCC[C@@H]12`, the Potency is reported as “inactive”. In the case of `O=C(c1cccs1)N1CCC2(CC1)SCC(=O)N2c1ccc(Cl)cc1`, the Potency is reported as “inactive”. In the case of `Cc1ccc(C)c(C(=O)NCc2nnc3c(-c4nc(C5CC5)no4)cccn23)c1`, the Potency is reported as “inactive”. With `CN(C)[S+](=O)([O-])c1ccc2c(c1)OCCN(Cc1ccsc1)C2` the Potency was inconclusive: 100 µM [inhibitor, partial curve]. With `COc1ccc(CN2C[C@@H]3[C@H](C2)N(CC(C)C)C(=O)C(C)(C)[S+]3(=O)[O-])cc1O` the Potency was “inactive”. In the case of `O=C(Nc1ccccc1)N1CCN(c2ccc3nnc(C4CC4)n3n2)CC1`, the Potency is reported as inconclusive: 39.8 µM [inhibitor, full curve, poor fit]. For `CC1(COCC2CC2)COc2ccc(C(=O)NCc3ccncc3)cc2N1` (stereo unspecified), the Potency was inconclusive: 79.4 µM [inhibitor, partial curve]. For `Cc1ccc(NC(=O)N2CCCC(c3noc(COc4ccccc4)n3)C2)cc1C` (stereo unspecified), the Potency was inconclusive: 50.1 µM [inhibitor, partial curve, poor fit]. For `CCCn1cc(C2CCN(S(=O)(=O)c3c(Cl)cccc3Cl)CC2)c2ccccc21`, the Potency was “inactive”. For `O=C1Nc2ccccc2CC12CCN(Cc1ccc(F)cc1)CC2`, the Potency was “inactive and inconclusive: 100 µM [inhibitor, partial curve, poor fit]”. With `CC(C)CNC(=O)c1cn2cc(-c3ccc(C(F)(F)F)cc3)sc2n1` the Potency was inconclusive: 89.1 µM [inhibitor, single point]. For `CC(C)Cc1nc2nccc(-c3ccncc3)n2n1`, the Potency was inconclusive: 89.1 µM [inhibitor, single point]. With `O=C(NCCCN1CCOCC1)c1ccc(-c2ccc(N3CCCCCC3)nc2)cc1` the Potency was active: 35.5 µM. For `Cc1ccccc1-n1nc(C)c(CCC(=O)NCC(C)C)c1Oc1cccc(F)c1`, the Potency was inconclusive: 89.1 µM [inhibitor, single point]. In the case of `Cc1ccc([S+](=O)([O-])N2CCc3nc(-c4ccccc4)nc(-c4ccc(Cl)cc4)c3C2)cc1`, the Potency is reported as “inactive”. With `O=C(c1ccccc1F)N1CCC2(CC1)NC(=O)N(Cc1ccc(F)cc1)C2=O` the Potency was inconclusive: 79.4 µM [inhibitor, partial curve, poor fit]. In the case of `COc1ccccc1-c1ccnc(N[C@H]2CO[C@H]3[C@@H]2OC[C@@H]3NS(=O)(=O)c2cccc3cccnc23)n1`, the Potency is reported as “inactive”. With `CN1CCC(Cn2ccc3c(N4CCOCC4)nc(-c4cccc(N[S+](C)(=O)[O-])c4)cc32)CC1` the Potency was inconclusive: 89.1 µM [inhibitor, single point]. In the case of `O=C(NCC1CC1)c1cccc(OC2CN(CC3CC=CCC3)C2)c1` (stereo unspecified), the Potency is reported as inconclusive: 89.1 µM [inhibitor, single point]. For `O=C1COc2ccc(Oc3ccccc3)nc2CN1CCOc1ccccc1`, the Potency was active: 100 µM. For `COc1ccccc1C(=O)Nc1ccc([C@H]2OCC(=O)N(Cc3ccccc3)[C@@H]2CO)cc1`, the Potency was inconclusive: 79.4 µM [inhibitor, partial curve, poor fit]. In the case of `O=C(NCc1ccc2c(c1)OCO2)[C@@H]1C[C@@H](c2ccc(F)cc2)N(CCOc2ccccc2)C1`, the Potency is reported as “inactive”. For `Cc1cc2cc(-c3c(C)noc3C)nc(-c3ccccc3)c2o1`, the Potency was inconclusive: 100 µM [inhibitor, partial curve]. In the case of `O=C(NCCc1ccc(Cl)cc1)C1CN(C2CCCCC2)C(=O)N1` (stereo unspecified), the Potency is reported as “inactive”. With `COc1ccc(-c2nc(C(C)C)nc3c2CCN(C(=O)c2cccc(OC)c2)CC3)cc1` the Potency was inconclusive: 89.1 µM [inhibitor, partial curve, poor fit]. For `O=C1CC2(CCN(C(=O)C3CCCN(C(=O)c4ccccc4Cl)C3)CC2)Oc2ccccc2N1` (stereo unspecified), the Potency was “inactive”. With `CCn1cc(-c2ccc(F)cc2)cc1C(=O)O` the Potency was “inactive”. For `COc1ccccc1Nc1ccnc(N2CCC(NC(=O)c3cccc(Cl)c3)CC2)n1`, the Potency was inconclusive: 50.1 µM [inhibitor, partial curve, poor fit]. With `COCCNC(=O)c1cnc2c(c1)N(Cc1ccccc1)CCC2` the Potency was inconclusive: 126 µM [inhibitor, single point]. With `O=[S+]1([O-])NCC2(CCN(Cc3cccs3)CC2)Oc2ncccc21` the Potency was “inactive”. With `Cc1nc(N2CCC(NC(=O)Cc3cccc(F)c3)CC2)cc(C(F)(F)F)n1` the Potency was inconclusive: 44.7 µM [inhibitor, partial curve]. With `OC1(c2csc(CN3CCOCC3)n2)CCN(CC2CCCCC2)CC1` the Potency was “inactive”. With `CCCN(C)c1nccnc1OC1CCN(C(=O)C2CCCCC2)C1` (stereo unspecified) the Potency was inconclusive: 50.1 µM [inhibitor, partial curve, poor fit]. In the case of `CCN(CC(C)(C)C)C(=O)CC1COc2ccc(C(=O)N(C)C)cc2N1C` (stereo unspecified), the Potency is reported as inconclusive: 89.1 µM [inhibitor, single point]. For `O=C(c1n[nH]c2ccccc12)N1CCC(OCCOc2cccnc2)CC1`, the Potency was inconclusive: 56.2 µM [inhibitor, partial curve, poor fit]. With `O=C(Nc1ccccc1)C1=NO[C@@H]2CN(Cc3ccc4[nH]ccc4c3)C[C@H]12` the Potency was inconclusive: 89.1 µM [inhibitor, partial curve].
